Test results: US12570764B2, “Anti-MUC16 antibodies, antibody-drug conjugates, and bispecific antigen-binding molecules that bind MUC16 and CD3, and uses thereof” (Regeneron Pharmaceuticals, Inc., priority 2016, dated 2026)

Legend:
mouse CD3 = mouse CD3 (Mus musculus, UniProt P04235+P22646); test: Binding to mouse CD3 (statement only)
[1] = tested on: human T cells (CD2+), CD69 / CD25 upregulation; test: T cell activation in PEO-1/PBMC co-culture; assay type: cell-based; details: PEO-1 target cells
Method: (§1) B. In analogous studies, MUC16-expressing (PEO-1 or OVCAR3-Luc) cell lines were labeled, plated and incubated overnight as described. Serial dilutions of MUC16×CD3 bispecific antibodies or isotype control were co-incubated. See results depicted in Tables 8B and 8C, and FIGS. 12A-12B.
(§2) T cell activation was assessed by incubating cells with directly conjugated antibodies to CD2, CD69 and/or CD25, and by reporting the percent of early activated (CD69+) T cells and/or late activated (CD25+) T cells out of total T cells (CD2+).

[2] = tested on: human T cells (CD2+), CD69 / CD25 upregulation; test: T cell activation in OVCAR3-Luc/PBMC co-culture; assay type: cell-based; details: OVCAR3-Luc target cells
Method: as §1, §2

[3] = Pharmacokinetics in CD3 humanized mice (CD3^hu/hu); assay type: in vivo, mouse; details: single 0.4 mg/kg i.p., serum
[4] = Pharmacokinetics in humanized MUC16 x CD3 mice (MUC16^hu/hu x CD3^hu/hu); assay type: in vivo, mouse; details: single 0.4 mg/kg i.p.
OVCAR-3/Luc [5] = test: OVCAR-3/Luc xenograft in PBMC-engrafted NSG mice, therapeutic treatment; assay type: in vivo; details: 10 μg/mouse i.p. 7 d post tumor implantation
Text: To assess the in vivo efficacy of the anti-MUC16/anti-CD3 bispecifics in human tumor xenograft studies, NOD scid gamma (NSG) mice (Jackson Laboratories, Bar Harbor, Me.) were pre-implanted with human peripheral blood mononuclear cells (PBMCs; ReachBio LLC., Seattle, Wash.) and then given ascites cells from the human ovarian cancer cell line OVCAR-3 (American Type Tissue Culture, Manassas, Va.) transduced with luciferase (OVCAR-3/Luc). OVCAR-3 cells endogenously express MUC-16.
Briefly, NSG mice were injected intraperitoneally (i.p.) with 5.0×10^6 human PBMCs. 8 d later, 1.5×10^6 ascites cells from the OVCAR-3/Luc cell line, previously passaged in vivo, were administered i.p. to the NSG mice engrafted with PBMCs. In the immediate treatment group, mice were treated i.p. on the day of OVCAR-3/Luc cell implantation with MUC16/CD3 Bispecific antibodies BSMUC16/CD3-001 or BSMUC16/CD3-005, or an isotype control, at a dose of 10 μg/mouse (N=5 mice/treatment group). In the therapeutic dose model, mice were treated i.p. 7 d post tumor implantation with the MUC16/CD3 Bispecific or control antibodies described above, at a dose of 10 μg/mouse (N=5/treatment group).
In all studies, tumor growth was monitored via bioluminescent imaging (BLI). […] Regions of interest were drawn around each cell mass and photon intensities were recorded as photons (p)/sec (s)/cm^2/steradian (sr). […]

mouse MUC16 = test: Binding to mouse MUC16 (statement only)
[6] = target: T1, soluble monomeric human MUC16 (hMUC16.mmh, last five SEA domains) (Homo sapiens, UniProt Q8WXI7); test: Surface plasmon resonance (Biacore) binding to hMUC16 fragment at 25° C.; details: Table 6, anti-MUC16/anti-CD3 bispecific antibodies
T1 construct: C-terminal tags (.mmh)

OVCAR-3/Luc [7] = test: OVCAR-3 model study 2 (xenogenic, NSG mice engrafted with human PBMCs); assay type: in vivo, mouse; details: for Avg Radiance 4 days post-implantation (median ± SEM): baseline, before dosing started
Method: In further experiments, the in vivo efficacy of an anti-MUC16/anti-CD3 bispecific antibody was evaluated in xenogenic and syngeneic tumor models. For the first xenogenic model, NSG mice were injected intraperitoneally (IP) with OVCAR-3/Luc cells previously passaged in vivo (Day 0) eleven days after engraftment with human PBMCs. Mice were treated IP with 0.01, 0.1, or 0.5 mg/kg BSMUC16/CD3-001, or administered 0.5 mg/kg non-binding control or CD3-binding control on Days 6, 10, 13, 16, and 21. Tumor burden was assessed by BLI on Days 6, 14, and 20 post tumor implantation. […] For the second xenogenic model, NSG mice were injected with OVCAR-3/Luc cells previously passaged in vivo (Day 0) thirteen days after engraftment with human PBMCs and a second batch of PBMCs were transferred on Day 4. Mice were treated intravenously (IV) with 0.1, 0.5, 1, or 5 mg/kg BSMUC16/CD3-005 or administered 5 mg/kg non-binding control or CD3-binding control on Days 5, 8, 12, 15, 19 and 22. Tumor burden was assessed by BLI on Days 4, 11, 18 and 25. […] To examine efficacy in an immune-competent model, the murine CD3 gene was replaced with human CD3 and a portion of the mouse MUC16 gene was replaced with the human sequence. […] For the syngeneic tumor model, ID8-VEGF cell lines engineered to express the portion of human MUC16 were used. Mice were implanted with the ID8-VEGF/huMUC16 cells subcutaneously and treated with 100 μg of BSMUC16/CD3-001 either on day of implantation or ten days after implantation when tumors were established.
Implantation and measurement of xenograft tumors: Ascites cells from the OVCAR-3/Luc cell line, previously passaged in vivo, were administered IP into the NSG mice previously engrafted with human PBMCs. BLI was measured as a read-out for tumor growth several days after OVCAR-3/Luc implantation and at multiple times during study. After initial BLI measurement for cohorting, mice were divided into groups of 4-6 animals each and administered MUC16×CD3 bispecific or control antibodies twice per week throughout the study.
Calculation of xenograft tumor growth and inhibition: Bioluminescence imaging was used to measure tumor burden. Mice were injected IP with 150 mg/kg (as determined by body weights at the start of the experiment) of the luciferase substrate D-luciferin suspended in PBS. Ten minutes after dosing, BLI imaging of the mice was performed under isoflurane anesthesia using the Xenogen IVIS system. Image acquisition was carried out with the field of view at D, subject height of 1.5 cm, and medium binning level for 0.5-min exposure time. BLI signals were extracted using Living Image software. Regions of interest were drawn around each tumor mass and photon intensities were recorded as p/s/cm^2/sr. Statistical analysis was performed using GraphPad Prism software (Version 6). Statistical significance for the BLI results was determined using an unpaired nonparametric Mann-Whitney t-test. Fold changes were calculated by the formula: (Day20-Day6)/Day6 for study 1 and (Day25−Day4)/Day4 for study 2.

T1 sequence (Q8WXI7 with tags, fused parts or gaps): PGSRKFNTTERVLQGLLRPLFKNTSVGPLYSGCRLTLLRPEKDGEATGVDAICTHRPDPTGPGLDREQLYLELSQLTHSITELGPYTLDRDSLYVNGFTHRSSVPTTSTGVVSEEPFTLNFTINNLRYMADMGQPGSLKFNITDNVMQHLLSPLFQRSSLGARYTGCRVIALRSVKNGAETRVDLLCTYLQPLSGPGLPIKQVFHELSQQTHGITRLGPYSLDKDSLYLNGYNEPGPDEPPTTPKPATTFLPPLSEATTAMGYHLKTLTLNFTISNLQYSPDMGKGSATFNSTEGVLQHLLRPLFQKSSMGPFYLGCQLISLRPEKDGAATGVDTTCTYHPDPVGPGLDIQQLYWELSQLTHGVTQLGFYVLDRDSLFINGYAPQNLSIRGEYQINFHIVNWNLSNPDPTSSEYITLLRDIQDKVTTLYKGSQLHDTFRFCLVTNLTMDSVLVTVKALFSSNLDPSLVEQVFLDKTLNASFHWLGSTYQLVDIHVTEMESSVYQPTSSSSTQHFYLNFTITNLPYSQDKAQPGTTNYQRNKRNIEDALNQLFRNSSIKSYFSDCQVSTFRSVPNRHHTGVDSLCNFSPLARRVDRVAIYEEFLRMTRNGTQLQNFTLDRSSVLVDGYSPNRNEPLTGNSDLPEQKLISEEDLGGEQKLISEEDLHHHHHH
mouse CD3, sequence (P22646 22-189): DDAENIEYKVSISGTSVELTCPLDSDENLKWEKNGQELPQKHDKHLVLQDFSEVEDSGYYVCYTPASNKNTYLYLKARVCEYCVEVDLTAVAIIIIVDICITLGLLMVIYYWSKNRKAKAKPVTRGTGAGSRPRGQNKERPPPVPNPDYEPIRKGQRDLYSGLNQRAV
mouse CD3, sequence (P04235 22-173): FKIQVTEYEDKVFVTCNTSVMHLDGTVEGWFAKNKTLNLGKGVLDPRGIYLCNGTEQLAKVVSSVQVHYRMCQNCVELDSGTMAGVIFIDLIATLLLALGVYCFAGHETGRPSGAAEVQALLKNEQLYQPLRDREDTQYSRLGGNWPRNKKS

B1: BSMUC16/CD3-005: anti-MUC16 x CD3 bispecific antibody, modified (chimeric) IgG4 Fc; H1H8767P arm, CD3-VH-G20 arm (SEQ ID NO: 1866) (antibody, V domains shown)
VH 1: QVQLVESGGGLVKPGGSLRLSCAASGFTFSNYYMSWVRQAPGKGLEWISYISGRGSTIFYADSVKGRITISRDNAKNSLFLQMNSLRAEDTAVYFCVKDRGGYSPYWGQGTLVTVSS
VH 2: EVQLVESGGGLVQPGRSLRLSCAASGFTFDDYSMHWVRQAPGKGLEWVSGISWNSGSIGYADSVKGRFTISRDNAKNSLYLQMNSLRAEDTALYYCAKYGSGYGKFYYYGMDVWGQGTTVTVSS
VL: [… about 100 residues …]PITFGQGTRLEIK
In the case of B1, the “Binding to mouse CD3” value (mouse CD3) is reported as “Neither BSMUC16/CD3-001 or BSMUC16/CD3-005 bind”, the EC50 ([1]; read-out: T cells activation (CD25 upregulation) EC50) is reported as 0.106 nM and the EC50 ([1]; read-out: T cells activation (CD69 upregulation) EC50) is reported as 0.0172 nM. For the same molecule, the EC50 [2] was 0.117 nM, the Terminal antibody concentration [3] was 0.66 µg/mL and the AUClast [4] was 34 ± 11 µg·days/mL. For the same molecule, the “Fold change in Avg Bioluminescent Radiance at Day 26 relative to Day 6 (mean ± SD)” value (OVCAR-3/Luc [5]) was 0.01 ± 0.02, the “Binding to mouse MUC16” value (mouse MUC16) was “Neither BSMUC16/CD3-001 or BSMUC16/CD3-005 bind” and the ka [6] was 94100 M⁻¹ s⁻¹. For the same molecule, the kd [6] was 0.000564 s⁻¹, the “Avg Radiance 25 days post-implantation (median ± SEM)” value (OVCAR-3/Luc [7]; 0.1 mg/kg IV on Days 5, 8, 12, 15, 19 and 22) was 7.63e+06 ± 1.83e+06 p/s/cm2^2/sr and the “Fold change in Avg Radiance from Day 4 to D25 post-implantation (mean ± SD)” value (OVCAR-3/Luc [7]; 0.1 mg/kg IV, (Day25−Day4)/Day4) was 45.4 ± 35.7. For the same molecule, the “Avg Radiance 4 days post-implantation (median ± SEM)” value (OVCAR-3/Luc [7]; group 0.1 mg/kg IV) was 1.53e+05 ± 1.93e+04 p/s/cm2^2/sr, the “Avg Radiance 4 days post-implantation (median ± SEM)” value (OVCAR-3/Luc [7]; group 0.5 mg/kg IV) was 1.31e+05 ± 4.03e+03 p/s/cm2^2/sr and the “Avg Radiance 4 days post-implantation (median ± SEM)” value (OVCAR-3/Luc [7]; group 1 mg/kg IV) was 1.38e+05 ± 4.65e+03 p/s/cm2^2/sr. The “Avg Radiance 4 days post-implantation (median ± SEM)” value (OVCAR-3/Luc [7]; group 5 mg/kg IV) was 1.54e+05 ± 1.03e+04 p/s/cm2^2/sr.
